This is one part of the list. Shown are side measurements of this screen, not its main read-out; they come without a call.

The test has as its target GTPase KRas (Homo sapiens) (UniProt P01116). Kind of test: Covalent labelling of cysteine mutants by fragments, read by mass spectrometry (AID 2202238). More on the design: protein at 5 µM with 500 µM competing thiol for 1.5 h. The settings on record: KRAS G12D cysteine mutants, disulfide tethering, MALDI-TOF labeling, stronger effect = higher value, fragment at 500 µM.
Sequence of UniProt P01116 (P01116 whole entry, looked up, the tested form may be a part): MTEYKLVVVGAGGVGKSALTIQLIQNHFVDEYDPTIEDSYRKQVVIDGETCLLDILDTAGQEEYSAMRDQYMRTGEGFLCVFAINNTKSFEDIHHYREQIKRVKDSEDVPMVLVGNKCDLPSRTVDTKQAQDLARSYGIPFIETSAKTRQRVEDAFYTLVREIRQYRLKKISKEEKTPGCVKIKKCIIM
Where [1] appears, read: measured here: G60C mutant labeling.
Setting [2] is: measured here: G75C mutant labeling.
Where [3] appears, read: measured here: H94C mutant labeling.
Setting [4] is: measured here: I36C mutant labeling.
[5] abbreviates: measured here: L120C mutant labeling.
Where [6] appears, read: measured here: M67C mutant labeling.
Where [7] appears, read: measured here: M72C mutant labeling.
Where [8] appears, read: measured here: N26C mutant labeling.
Setting [9] is: measured here: N86C mutant labeling.
The mark [10] stands for this setting: measured here: P121C mutant labeling.
Setting [11] is: measured here: S122C mutant labeling.
[12] abbreviates: measured here: S136C mutant labeling.

Consider `O=C(NCCS)C1(C2CCOCC2)CC1(F)F` (configuration not stated), for which the percent labeling amounted to 20.2% under setting [1]; 9% under setting [2]; 26.4% under setting [3]; 23.1% under setting [4]; 27.6% under setting [5]; 23.8% under setting [6]. The percent labeling runs as follows: under setting [7], 9.8%; under setting [8], 29.4%; under setting [9], 27.2%; under setting [10], 26.4%; under setting [11], 27.5%; under setting [12], 30.8%.

On to `CCc1nc(-c2ccc(C(=O)NCCS)cc2)n[nH]1`, for which the percent labeling by setting is: under setting [1], 27.7%; under setting [2], 16.4%; under setting [3], 24.4%; under setting [4], 19.4%; under setting [5], 24.4%; under setting [6], 28%. The same compound registered a percent labeling under setting [7] of 36.1%; a percent labeling under setting [8] of 41.9%; a percent labeling under setting [9] of 34.8%; a percent labeling under setting [10] of 20.6%; a percent labeling under setting [11] of 22.6%; a percent labeling under setting [12] of 38.4%.

As for `O=C(CCS)N1CCC(CCN2CCCS2(=O)=O)CC1`, the percent labeling by setting is: under setting [2], 15.8%; under setting [3], 36.2%; under setting [4], 37.9%; under setting [5], 32.2%; under setting [6], 40%; under setting [7], 24.5%. Besides, the percent labeling was 31.2% under setting [9], 31.8% under setting [10], 38.3% under setting [11] and 55.9% under setting [12].

Regarding `CCn1nccc1[C@@H]1OCC[C@H]1C(=O)NCCS`, the percent labeling runs as follows: under setting [1], 28.9%; under setting [2], 14.1%; under setting [3], 34%; under setting [4], 29.4%; under setting [5], 31.4%; under setting [6], 34.5%. Besides, the percent labeling was found to be 16% under setting [7]; 26.5% under setting [8]; 17% under setting [9]; 38.2% under setting [10]; 25.3% under setting [11]; 52% under setting [12].

For `O=C(CCS)N1CCn2c(Cc3ccccc3F)nnc2C1`, the percent labeling by setting is: under setting [2], 10.4%; under setting [3], 24.9%; under setting [4], 37.8%; under setting [5], 19.5%; under setting [6], 34.8%; under setting [7], 16.5%. Further, the percent labeling under setting [9] was 16.3%, the percent labeling under setting [10] amounted to 25.1%, the percent labeling under setting [11] turned out to be 26.9% and the percent labeling under setting [12] was 47.8%.

`O=C(Cc1ccc(OCc2ccccn2)cc1)NCCS`: the percent labeling under setting [1] stood at 41.7%; the percent labeling under setting [2] came out at 14.8%; the percent labeling under setting [3] came to 29.8%; the percent labeling under setting [4] came to 25.9%; the percent labeling under setting [5] came to 37.4%; the percent labeling under setting [6] was 37.9%. Moreover, the percent labeling by setting is: under setting [7], 30.7%; under setting [8], 39.7%; under setting [9], 20.7%; under setting [10], 27.4%; under setting [11], 20.8%; under setting [12], 35.7%.

On to `CC1(C(=O)NCCS)CCCN1C(=O)c1ccccc1` (configuration not stated), for which the percent labeling reads like this: under setting [1], 32.8%; under setting [2], 12.3%; under setting [3], 34.4%; under setting [4], 26.2%; under setting [5], 46.1%; under setting [6], 27.7%. The compound also displayed a percent labeling under setting [7] of 24%; a percent labeling under setting [8] of 41.7%; a percent labeling under setting [9] of 29.2%; a percent labeling under setting [10] of 31.1%; a percent labeling under setting [11] of 33%; a percent labeling under setting [12] of 44.2%.

In the case of `N#Cc1nc(-c2ccco2)oc1N1CCC(C(=O)NCCS)CC1`, the percent labeling runs as follows: under setting [1], 22.2%; under setting [2], 10.8%; under setting [3], 14%; under setting [4], 14.5%; under setting [5], 11.7%; under setting [6], 15.2%. For the same compound, the percent labeling was found to be 15.3% under setting [7]; 24.8% under setting [8]; 8.2% under setting [9]; 12.5% under setting [10]; 8.1% under setting [11]; 14.1% under setting [12].

As to `O=C(NCCS)c1nccnc1-c1nc2ccccc2s1`, the percent labeling under setting [1] was found to be 52.1%; the percent labeling under setting [2] came out at 16.3%; the percent labeling under setting [3] came out at 31.4%; the percent labeling under setting [4] turned out to be 19.9%; the percent labeling under setting [5] stood at 23.7%; the percent labeling under setting [6] was 24.1%. The percent labeling is 47.3% under setting [7]; 32.4% under setting [8]; 14.5% under setting [9]; 20.4% under setting [10]; 13.1% under setting [11]; 30.1% under setting [12].

Consider `Cc1cc(C2(C(=O)NCCS)CCOCC2)on1`, for which the percent labeling runs as follows: under setting [1], 23.3%; under setting [2], 11.5%; under setting [3], 26.3%; under setting [4], 21.7%; under setting [5], 36.4%; under setting [6], 29.2%. The percent labeling is, setting by setting: under setting [7], 18.1%; under setting [8], 31.6%; under setting [9], 26.5%; under setting [10], 28.2%; under setting [11], 28%; under setting [12], 48%.

`O=C(NCCS)C1CCN(c2ccccc2F)C1` (configuration not stated): the percent labeling stood at 34.5% under setting [1]; 10.6% under setting [2]; 20% under setting [3]; 12.5% under setting [4]; 29.4% under setting [5]; 32.4% under setting [6]. Also, the percent labeling amounted to 25% under setting [7]; 29.4% under setting [8]; 6.8% under setting [9]; 18.2% under setting [10]; 15.3% under setting [11]; 27.9% under setting [12].

As to `Cn1ccc(C2CCN(C(=O)CCS)CC2)n1`, the percent labeling under setting [2] amounted to 15%; the percent labeling under setting [3] was 29%; the percent labeling under setting [4] was found to be 39.7%; the percent labeling under setting [5] amounted to 28.5%; the percent labeling under setting [6] came to 35.3%; the percent labeling under setting [7] amounted to 24.1%. The percent labeling is 18.1% under setting [9], 32.3% under setting [10], 38.9% under setting [11] and 55.1% under setting [12].

Turning to `O=C(NCCS)c1cnoc1-c1cccs1`, the percent labeling is, setting by setting: under setting [1], 34.3%; under setting [2], 9.3%; under setting [3], 13.4%; under setting [4], 7.5%; under setting [5], 44.7%; under setting [6], 14.7%. Also, the percent labeling by setting is: under setting [7], 37.6%; under setting [8], 25.3%; under setting [9], 6.7%; under setting [10], 26.2%; under setting [11], 33.3%; under setting [12], 24.4%.

For `O=C(CCCc1ccc2c(c1)CC(=O)N2)NCCS`, the percent labeling came out at 44.4% under setting [1]; 13.1% under setting [2]; 27.3% under setting [3]; 18.3% under setting [4]; 28.7% under setting [5]; 20.2% under setting [6]. The compound further displayed a percent labeling under setting [7] of 28.3%; a percent labeling under setting [8] of 26.8%; a percent labeling under setting [9] of 17.1%; a percent labeling under setting [10] of 21.4%; a percent labeling under setting [11] of 18.9%; a percent labeling under setting [12] of 26.1%.

Take `O=C(CCS)NCc1nc(-c2ccc(F)cc2)n[nH]1`: the percent labeling is, setting by setting: under setting [2], 21.1%; under setting [3], 32.9%; under setting [4], 37.6%; under setting [5], 47.6%; under setting [6], 49.2%; under setting [7], 37.3%. In addition, the percent labeling is, setting by setting: under setting [9], 20%; under setting [10], 35.8%; under setting [11], 32.2%; under setting [12], 47.6%.

As for `O=C(CCS)NCc1nc(C(F)(F)F)n2c1CCCC2`, the percent labeling under setting [2] was 11.8%; the percent labeling under setting [3] was determined as 35.6%; the percent labeling under setting [4] was 35%; the percent labeling under setting [5] came to 40.6%; the percent labeling under setting [6] was 34.8%; the percent labeling under setting [7] came out at 30%. The percent labeling is, setting by setting: under setting [9], 24.3%; under setting [10], 32.6%; under setting [11], 33.9%; under setting [12], 56.9%.

As to `O=C(NCCS)c1ccc(Oc2cc(Cl)ccc2Cl)cc1`, the percent labeling is, setting by setting: under setting [1], 36.6%; under setting [2], 16.6%; under setting [3], 17.4%; under setting [4], 16%; under setting [5], 17.7%; under setting [6], 19.1%. In addition, the percent labeling reads like this: under setting [7], 37.6%; under setting [8], 27.4%; under setting [9], 9.9%; under setting [10], 15.4%; under setting [11], 4.5%; under setting [12], 14.5%.

In the case of `CN(C)C1CC2(CC(NC(=O)CCS)C2)C1` (configuration not stated), the percent labeling by setting is: under setting [2], 11.9%; under setting [3], 35.4%; under setting [4], 49.8%; under setting [5], 26.5%; under setting [6], 47%; under setting [7], 20.4%. Moreover, the percent labeling worked out at 19.9% under setting [9], 38.3% under setting [10], 32.5% under setting [11] and 56.4% under setting [12].

In turn, `O=C(NCCS)C(c1ccccc1)N1CCc2ccccc21` (configuration not stated) had a percent labeling under setting [1] of 18.6%; a percent labeling under setting [2] of 3.2%; a percent labeling under setting [3] of 5.6%; a percent labeling under setting [4] of 4.5%; a percent labeling under setting [5] of 11.5%; a percent labeling under setting [6] of 10.1%. Further, the percent labeling stood at 0% under setting [7]; 8.7% under setting [8]; 5.7% under setting [9]; 9.3% under setting [10]; 2.3% under setting [11]; 6.8% under setting [12].

Turning to `Cc1c(CN(CC(F)F)C(=O)CCS)cnn1C`, the percent labeling runs as follows: under setting [2], 15.4%; under setting [3], 36.3%; under setting [4], 37.7%; under setting [5], 28.6%; under setting [6], 45.3%; under setting [7], 31%. Besides, the percent labeling by setting is: under setting [9], 35%; under setting [10], 30.5%; under setting [11], 38.5%; under setting [12], 58.2%.

Compound `O=C(NC1(C(=O)NCCS)CCCC1)c1n[nH]c2ccccc12` returned a percent labeling under setting [1] of 45.8%; a percent labeling under setting [2] of 9.8%; a percent labeling under setting [3] of 25.4%; a percent labeling under setting [4] of 16.7%; a percent labeling under setting [5] of 34.3%; a percent labeling under setting [6] of 53.5%. Also, the percent labeling under setting [7] is 18.4%; the percent labeling under setting [8] was found to be 29.6%; the percent labeling under setting [9] stood at 23.2%; the percent labeling under setting [10] worked out at 16%; the percent labeling under setting [11] was determined as 13.9%; the percent labeling under setting [12] is 23.9%.

`Cc1nc(CN2CCC(C(=O)NCCS)CC2)cs1`: the percent labeling was found to be 36% under setting [1]; 13.8% under setting [2]; 38.4% under setting [3]; 36.7% under setting [4]; 40.1% under setting [5]; 41% under setting [6]. The percent labeling is 19.4% under setting [7]; 42.8% under setting [8]; 30.7% under setting [9]; 32.5% under setting [10]; 30.3% under setting [11]; 49.2% under setting [12].

Compound `CCOc1cc2c(c3[nH]c(C(=O)NCCS)cc13)OC(C)C2` (configuration not stated) registered a percent labeling under setting [1] of 10.5%; a percent labeling under setting [2] of 5.5%; a percent labeling under setting [3] of 8.9%; a percent labeling under setting [4] of 9.2%; a percent labeling under setting [5] of 9.9%; a percent labeling under setting [6] of 7.7%. Moreover, the percent labeling under setting [7] was 12.6%; the percent labeling under setting [8] worked out at 18.4%; the percent labeling under setting [9] amounted to 0%; the percent labeling under setting [10] amounted to 9.2%; the percent labeling under setting [11] is 5.9%; the percent labeling under setting [12] turned out to be 8.3%.

Source of the values: PubChem BioAssay AID2202238 (Ras Initiative Chemistry Research Team, Frederick National …, 2025).
